The campaign covered roughly 52,000 compounds. About 4,300 (8.3%) were called active. No stated cut-off is given here; in the data, active means survival mostly below about 52% (no sharp cut-off); inactive means mostly above about 56%. The list shows a part of the results.
tested on: DeltatarO mutant; assay: S. aureus survival, RN4220 and DeltatarO strains – OD600, teichoic acid synthesis inhibitors, primary screen (AID 463173); conditions: S. aureus RN4220 wild type/DeltatarO growth, OD600, 18 h, active compounds read low, screened at 18.75 µg/mL (by protocol)

Structure (SMILES)	survival
CCCCN(C)C(=O)CN1C(=O)c2cccnc2Oc2ccc(Cl)cc21	inactive: 89%
CN(C(=O)CSc1nncn2c1cc1occc12)c1ccccc1	inactive: 74%
CCN(CC)C(=O)c1sc2c(c1C)c(=O)n(-c1ccccc1)c(=O)n2CC(=O)N(CC)c1cccc(C)c1	inactive: 87%
COc1cc(C(=O)Nc2cc(C)c(O)c(-c3nc4cc(Cl)ccc4o3)c2)cc(OC)c1OC	inactive: 61%
CCCOc1ccc(C2C(=O)N(C3CCCCCC3)CC(=O)N2C(C)C)cc1OC (centres undefined)	inactive: 96%
Cc1cc2nn(-c3ccc(F)cc3)nc2cc1NC(=O)c1ccc(C(C)(C)C)cc1	inactive: 60%
COc1cc(CN(C(=O)c2ccccc2)c2ccccn2)cc(OC)c1OC	inactive: 78%
COc1ccc(-c2cn3cccnc3n2)cc1NC(=O)c1ccccc1C(F)(F)F	inactive: 84%
COc1ccc2c(c1)c(=O)c(C(=O)c1ccc(F)cc1)cn2CC(=O)Nc1ccc2c(c1)OCCO2	inactive: 65%
CCOC(=O)/C(C#N)=C1\C(=O)Nc2ccccc21	inactive: 83%
O=C(CC(c1ccccc1)c1cc(Br)ccc1O)NCCN1CCOCC1 (centres undefined)	inactive: 100%
O=C(NCc1cccs1)c1ccc2c(c1)sc1nc(-c3ccccc3)cn12	inactive: 82%
CC(C)c1ccc(-c2noc(SCC(=O)N3CCN(c4ccccc4F)CC3)n2)cc1	inactive: 92%
Cn1c(CNC(=O)CSc2nc(-c3ccccc3F)nc3cc(=O)[nH]n23)nc2ccccc21	inactive: 74%
COc1ccc(Cn2ccn(CC(=O)Nc3cc(C)ccc3C)c(=O)c2=O)cc1	active: 47%
Cc1c(C(=O)N2CCC(C(=O)Nc3ccc(F)c(Cl)c3)CC2)sc2nc[nH]c(=O)c12	inactive: 97%
Cc1nnc2c3ccccc3nc(Nc3ccc(F)cc3Cl)n12	inactive: 83%
CCOc1ccc(-n2c(-c3ccc(Br)cc3)cc3c2CC(C)(C)CC3=O)cc1	active: 17%
CCOC(=O)c1cc(-c2ccc(F)cc2)n(CCC(=O)Nc2nc3cc(C)c(C)cc3s2)c1C	inactive: 85%
COc1ccc(OCc2ccc(-c3nc(C#N)c(NCc4ccc(F)cc4)o3)o2)cc1	inactive: 73%

Structure (SMILES)	survival
Cc1nc(N2CCCC2)ncc1C(=O)Nc1ccc(OC(F)(F)F)cc1	inactive: 78%
Cc1ccc2c(CC(=O)Nc3nnc(C(C)C)s3)coc2c1C	inactive: 101%
COc1cc(OC)cc(-n2c(=O)c3sccc3n(Cc3cc(=O)n4c(C)cccc4n3)c2=O)c1	inactive: 172%
OCCN1CCN(c2ncnc3c2cnn3-c2cccc(Cl)c2)CC1	inactive: 92%
O=C(Cc1ccccc1)Nc1ccc2oc(-c3ccc(Br)cc3)nc2c1	inactive: 75%
CC(C)(C)CC(C)(C)N=C1NS(=O)(=O)c2ccccc21	inactive: 79%
COc1cccc(CNC(=O)Nc2cn(CC(C)C)c(=O)c3ccccc23)c1	inactive: 75%
COc1ccc(-c2oc3ncn4nc(-c5ccccc5OC)nc4c3c2-c2ccc(OC)cc2)cc1	inactive: 112%
Brc1ccc(CN2CCc3nc(Nc4ccccc4)ncc3C2)s1	inactive: 86%
O=C(c1ccc2c(c1)N(Cc1ccccc1F)C(=O)c1ccccc1S2=O)N1CCC(Cc2ccccc2)CC1 (centres undefined)	inactive: 77%
N#CCNC(=O)c1sc2ccccc2c1Cl	inactive: 95%
N#Cc1c(SCC(N)=O)nsc1SCC(N)=O	inactive: 74%
COc1ccc(N(Cc2cc3cc(OC)ccc3[nH]c2=O)C(=O)c2cccc(Cl)c2)cc1	inactive: 88%
CC(C)C(c1nnnn1C1CCCC1)N1CCc2ccccc21 (centres undefined)	inactive: 76%
COc1ccc(OC)c(CNC(=O)c2cc3c(=O)oc4ccc(C)cc4c3s2)c1	inactive: 90%
Cc1ccc(Cl)cc1NC(=O)Cn1nnc2sc3c(c2c1=O)CCC(C(C)(C)C)C3 (centres undefined)	inactive: 58%
Cc1cccc(N(C)S(=O)(=O)c2nnc(NC(=O)C(C)(C)C)s2)c1	inactive: 99%
COc1ccc(CCNc2ncnc3c2cnn3-c2ccc(F)cc2)cc1	inactive: 61%
CCCSc1nc2sc3c(c2c(=O)n1-c1ccc(C)cc1)CCCC3	active: 8%
CNc1nc(SC)nc(N(C)C#N)n1	inactive: 104%

Structure (SMILES)	survival
CC(c1ccccc1)n1cc(C(=O)NCCN2CCCCCC2)nn1 (centres undefined)	inactive: 103%
CCOC(=O)c1c(S(=O)(=O)NCC(=O)Nc2cccc(SC)c2)c(C)n(C)c1C	inactive: 83%
COc1ccc(NC(=O)CCCS(=O)(=O)c2nc(-c3ccccc3OC)cc(C(F)(F)F)n2)c(OC)c1	active: 46%
CC1=C(c2ccc(C(C)C)cc2)S(=O)(=O)NC1=NCc1ccc(OC(C)C)cc1	inactive: 93%
Cc1ccccc1NC(=O)C(C)Sc1nc2ccccc2c(=O)n1C (centres undefined)	inactive: 78%
CCOc1ccc(/C=C/C(=O)NCc2ccco2)cc1OC	inactive: 83%
Cn1c(SCC(=O)N2CCOCC2)ncc(C(=O)Nc2ccc(F)cc2)c1=O	inactive: 87%
Brc1cccc(-c2nn(-c3ccccc3)c3c2cnc2cc4c(cc23)OCO4)c1	inactive: 82%
COCCn1c(CNC(=O)c2ccccc2C)nc2cccnc21	inactive: 73%
Cc1ccc(C)c(CN2CCC(CNC(=O)C(CC(C)C)N3Cc4ccccc4C3=O)CC2)c1 (centres undefined)	inactive: 128%
COc1ccc(NC(=O)Nc2cccc(-c3noc(C)n3)c2)cc1	inactive: 126%
O=C(c1cccs1)N1CCCc2cc(NS(=O)(=O)c3ccc(Br)cc3)ccc21	inactive: 87%
CCc1cccc(C)c1NC(=O)C1CCN(S(=O)(=O)c2cc(Br)cc3c2N(C(C)=O)CC3)CC1	inactive: 59%
c1ccc(-n2cnnn2)cc1	inactive: 112%
COc1cccc(-n2ccnc2SCC(=O)Nc2cccc3ccccc23)c1	inactive: 129%
O=C(NCc1ccccc1Cl)c1ccc2c(c1)ncn2-c1cccc(F)c1	inactive: 72%
COc1ccc(-n2c(CC3C(=O)Nc4ccc(C)cc43)nc3ccccc3c2=O)cc1 (centres undefined)	inactive: 73%
CC1Cc2ccccc2N1C(=O)CSc1ncccc1C(=O)O (centres undefined)	inactive: 84%
Cc1ccc(CNC(=O)C2CCCN(c3nc4ccccc4n4cccc34)C2)cc1 (centres undefined)	inactive: 64%

Reference: PubChem BioAssay AID463173 (ICCB-Longwood Screening Facility, Harvard Medical School, 2010)
